In all, about 48,000 compounds went through this assay and about 120 (0.25%) were called active. Another 4% or so got no clear call; they are omitted. Calls come from the whole dose curve; as a rule, active = well fitted activation curve with a large enough effect; inconclusive = small, poorly fitted or top-dose-only effect, or another doubt; inactive = no such curve, though single readings can be large or run the other way. This is one part of the list.
Experiment: Primary qHTS for Identification of Small Molecule Activators of Huntingtin-Antisense Promoter Activity; note: nearly all actives have a fitted effect of over 55% in size
Settings: HEK293 HTT-AS promoter firefly luciferase reporter (activity 0% = vehicle and -100% = no light), 24 h; series mostly up to 57.5 µM; activity change, positive = activation: at the top concentration
Summary of the method: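 HEK293 cells carrying firefly luciferase reporters were seeded at 2,500 per well in Opti-MEM and cultured for 24 h. They were then treated with compounds at up to 57.5 uM final for 24 h at 37 degrees C before Dual-Glo luminescence readout.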

Activity change, positive = activation, inactive:
Cn1c2ccccc2c2cnn(CC(=O)NCCCN3CCCCC3)c(=O)c21 -5.53%, CCOc1ccc(NC(=O)CSc2cn(CCNC(=O)c3ccccc3F)c3ccccc23)cc1 -19%, CCc1ccccc1NC(=O)CSc1nncn2c1cc1oc(C)cc12 -32.4%, CCOC(=O)C(CC)n1nnc2sc(-c3ccccc3)cc2c1=O (stereo unspecified) 4.73%, O=C(NCCS(=O)(=O)N1CCN(c2ccc(F)cc2)CC1)C(c1ccccc1)c1ccccc1 -16.9%, CC(=O)c1cccc(NC(=O)CSc2nnc3ccc(-c4ccc(Br)cc4)nn23)c1 -4.76%, Cc1ccc2oc(=O)c3cnn(CC(=O)N4CCN(c5ccc(F)cc5)CC4)c3c2c1 -7.6%, CC(C)Oc1ccccc1-c1nc(SCC(=O)c2ccc(F)cc2)n[nH]1 -23.3%, Cc1ccc(CNC(=O)CSc2nc3c(sc4ccccc43)c(=O)n2CCCOC(C)C)cc1 -9.61%, Cc1ccc(NC(=O)Cn2c(=O)n(Cc3ccccc3)c(=O)c3sc4ccccc4c32)cc1 -9.13%, Cc1ccc(-n2c(=O)c3sc4ccccc4c3n(CC(=O)NC3CCCC3)c2=O)cc1C -26.6%, COc1ccc(OC)c(CCNC(=O)c2cc3c(s2)-c2c(C)cccc2OC3)c1 -18%, CCc1nc2ccc(C(=O)N3CCN(c4cc(Cl)ccc4C)CC3)cc2nc1CC -35%, Cc1ccc(S(=O)(=O)NCC2CCC(C(=O)NCCc3ccccc3)CC2)cc1 (stereo unspecified) -8.9%, CC(=O)Nc1ccc(S(=O)(=O)NC2(C(F)(F)F)C(=O)Nc3c2c(=O)[nH]c(=O)n3-c2cccc(Cl)c2)cc1 (stereo unspecified) -8.16%, CCOC(=O)c1cnc2cc(C(F)(F)F)ccc2c1Nc1ccc(F)cc1F -12.7%, CCC(=O)N1CCc2cc(CNS(=O)(=O)c3cc(OC)ccc3OC)ccc21 -21.9%, O=C(c1ccc(F)cc1)c1cn(Cc2ccccc2F)c2cc3c(cc2c1=O)OCCO3 -9.39%, Cc1cccc(-c2nc(CN3CCCC(C(=O)N4CCN(c5cc(Cl)ccc5C)CC4)C3)c(C)o2)c1 (stereo unspecified) -37.4%, Cc1ccc(CSc2nc3cccnc3n2Cc2ccc(C(=O)NCc3ccco3)cc2)cc1 19.4%, Oc1ccc(Cl)cc1C1=Nc2ccccc2N=C(c2ccccc2)C1 -3.84%, COC(=O)CSc1ncc2c(n1)-c1ccccc1N(Cc1ccc(Cl)cc1)S2(=O)=O -15%, COc1ccc(CCn2c3c(c(=O)[nH]c2=O)C(NC(=O)c2ccc(Cl)cc2)(C(F)(F)F)C(=O)N3)cc1OC (stereo unspecified) 6.17%, COc1ccc(CNc2ncnc3c2nc2n3CCCC2)cc1 -15.2%, Cc1cccc(CNC(=O)Cn2c(-c3cccs3)cc3ccccc32)c1 -19.4%, Cc1cccc(OCC(=O)Nc2ccccc2C(=O)OCc2cc(=O)n3ccsc3n2)c1 12.7%

Source: PubChem BioAssay AID1508624 (National Center for Advancing Translational Sciences (NCATS), 2021)
